For 16 molecules, IC50 results are on record in US7868037B2 (PTC Therapeutics, Inc., priority 2004, dated 2011).

Each structure is given as a SMILES string. Where two headings read alike, the source gives them in different places. Bounds are passed on as bounds.

This assay concerns HCV replicon. The experiment in a line: microbe, parasite or virus in culture. In kind it is cell-based. The note with it: Hepatitis C virus.
[1] abbreviates: 48 h, read-out: Replicon IC50 μM 2-day.
Setting [2] is: 72 h, read-out: Replicon IC50 μM 3-day.

As to `CCOc1ccc2c(C#N)c(-c3ccc(NC(=O)OC(C)C4CC4)cc3)n(C3CCC3)c2c1` (racemic) [Compound 1147, rac-[4-(3-cyano-1-cyclobutyl-6-ethoxy-1H-indol-2-yl)-phenyl]-carbamic acid 1-cyclopropyl-ethyl ester], the IC50 is, setting by setting: under setting [1], less than 0.5 µM; under setting [2], less than 0.5 µM.

On to `CCCOC(=O)Nc1ccc(-c2c(C#N)c3ccc(OC)cc3n2CC)cc1F` [Compound 877, [4-(3-cyano-1-ethyl-6-methoxy-1H-indol-2-yl)-2-fluorophenyl]-carbamic acid propyl ester], for which, under setting [1], the IC50 lay within 0.5 to 2 µM.

For the molecule `CCn1c(-c2ccc(NS(=O)(=O)CC)cc2)c(C#N)c2ccc(OC(F)(F)F)cc21` [Compound 881, ethanesulfonic acid [4-(3-cyano-1-ethyl-6-trifluoromethoxyindol-2-yl)phenyl]amide], the IC50 is less than 0.5 µM under setting [1] and less than 0.5 µM under setting [2].

On to `CCn1c(-c2ccc(N3CCCS3(=O)=O)cc2)c(C#N)c2ccc(OC(F)(F)F)cc21` [Compound 903, 2-[4-(1,1-dioxidoisothiazolidin-2-yl)phenyl]-1-ethyl-6-(trifluoromethoxy)indole-3-carbonitrile], for which, under setting [1], the IC50 is less than 0.5 µM.

For `C=CCn1c(-c2ccc(N3CCCC3=O)cc2)c(C#N)c2ccc(OC)cc21` [Compound 938, 1-allyl-6-methoxy-2-[4-(2-oxopyrrolidin-1-yl)-phenyl]-1H-indole-3-carbonitrile], under setting [1], the IC50 is 0.5 to 2 µM.

In the case of `CCn1c(-c2ccc(N3CCCS3(=O)=O)cc2)c(C#N)c2ccc(OC3CC3)cc21` [Compound 1046, 6-cyclopropoxy-2-[4-(1,1-dioxo-1λ^6-isothiazolidin-2-yl)-phenyl]-1-ethyl-1H-indole-3-carbonitrile], the IC50 by setting is: under setting [1], less than 0.5 µM; under setting [2], less than 0.5 µM.

As for `CCn1c(-c2ccc(NC(=O)OC)cc2)c(C#N)c2ccc(OC(F)F)cc21` [Compound 1130, [4-(3-cyano-6-difluoromethoxy-1-ethyl-1H-indol-2-yl)-phenyl]-carbamic acid methyl ester], the half-maximal inhibitory concentration (IC50) under setting [1] was 0.5 to 2 µM.

For `CCOc1ccc2c(C#N)c(-c3ccc(NC(=O)N4CCOCC4)cc3)n(C3CCC3)c2c1` [Compound 1166, morpholine-4-carboxylic acid [4-(3-cyano-1-cyclobutyl-6-ethoxy-1H-indol-2-yl)-phenyl]-amide], the half-inhibitory concentration (IC50) under setting [1] was in the range of 0.5 to 2 µM.

Turning to `CCn1c(-c2ccc(NC(=O)C3CC3)cc2)c(C#N)c2ccc(OCCn3ccnc3)cc21` [Compound 1183, cyclopropanecarboxylic acid {4-[3-cyano-1-ethyl-6-(2-imidazol-1-yl-ethoxy)-1H-indol-2-yl]-phenyl}-amide], under setting [1], the IC50 was less than 0.5 µM.

Regarding `CCOc1ccc2c(C#N)c(-c3ccc(N(CC)CC)cc3)n(C3CCC3)c2c1` [Compound 1217, 1-Cyclobutyl-2-(4-diethylamino-phenyl)-6-ethoxy-1H-indole-3-carbonitrile], under setting [1], the 50% inhibitory concentration (IC50) fell in the range of 0.5 to 2 µM.

In the case of `CCNc1ccc(-c2c(C#N)c3ccc(OCC)cc3n2C2CCC2)cc1` [Compound 1239, 1-cyclobutyl-6-ethoxy-2-(4-ethylaminophenyl)-1H-indole-3-carbonitrile], the IC50 reads like this: under setting [1], less than 0.5 µM; under setting [2], less than 0.5 µM.

On to `CCOc1ccc2c(C#N)c(-c3ccc(N(CC)C(=O)OC4CCCC4)cc3)n(C3CCC3)c2c1` [Compound 1251, [4-(3-cyano-1-cyclobutyl-6-ethoxy-1H-indol-2-yl)-phenyl]-ethyl-carbamic acid cyclopentyl ester], for which the IC50 under setting [1] lay within 0.5 to 2 µM.

Turning to `CC(C)OC(=O)Nc1ccc(-c2c(C#N)c3ccc(OCCCn4cncn4)cc3n2C2CCC2)cc1` [Compound 1255, {4-[3-cyano-1-cyclobutyl-6-(3-[1,2,4]triazol-1-yl-propoxy)-1H-indol-2-yl]-phenyl}-carbamic acid isopropyl ester], the IC50 is, setting by setting: under setting [1], less than 0.5 µM; under setting [2], less than 0.5 µM.

Consider `CC(C)OC(=O)Nc1ccc(-c2c(C#N)c3ccc(OCCn4cncn4)cc3n2C2CCC2)cc1` [Compound 1276, {4-[3-cyano-1-cyclobutyl-6-(2-[1,2,4]triazol-1-yl-ethoxy)-1H-indol-2-yl]-phenyl}-carbamic acid isopropyl ester], for which, under setting [2], the 50% inhibitory concentration (IC50) is less than 0.5 µM.

Turning to `CC(C)NC(=O)Nc1ccc(-c2c(C#N)c3ccc(OCCCn4cncn4)cc3n2C2CCC2)cc1` [Compound 1314, 1-{4-[3-cyano-1-cyclobutyl-6-(3-[1,2,4]triazol-1-yl-propoxy)-1H-indol-2-yl]-phenyl}-3-isopropyl-urea], the IC50 under setting [2] was less than 0.5 µM.

As for `CC(OC(=O)Nc1ccc(-c2c(C#N)c3ccc(OCCn4cncn4)cc3n2C2CCC2)cc1)C1CC1` (stereo not drawn) [Compound 1329, {4-[3-cyano-1-cyclobutyl-6-(2-[1,2,4]triazol-1-yl-ethoxy)-1H-indol-2-yl]-phenyl}-carbamic acid 1-cyclopropyl-ethyl ester], under setting [2], the half-inhibitory concentration (IC50) was less than 0.5 µM.

One may read the IC50 as the midpoint of a concentration-inhibition curve.
